± gives the standard deviation of the averaged measurements. The list shows a part of the results.

The subject of the test is PfAP2-EXP AP2 domain (GST-tagged). As to the kind of experiment: gcPBM binding intensity (ln(normalized median fluorescence intensity)); higher = stronger DNA binding. In outline:
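In this array assay, P. falciparum DNA-binding domains with a GST tag, expressed in E. coli, were applied for 1 h to primer-extended double-stranded 36-bp intergenic genomic probes and negative controls on an Agilent 4 × 180k array. Bound protein was visualised with Alexa488 anti-GST antibody at 488 nm. Binding intensity is the highest Masliner-normalised natural-log median intensity across replicate spots of either probe orientation.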
On to “TATGATGAGATAACAAAAGTTGTACTTTTTTTTTTT [CACACA_negctrl_site1172]”, for which the “gcPBM binding intensity (ln)” value came out at 8.3 ± 0.19.

Take “ATGATATGGATAAATACACACAATATAATAATGTCT [CACACA_site1433]”: the “gcPBM binding intensity (ln)” value is 8.6 ± 0.46.

In the case of “CATATATACTCATACACACACACACCGACACAGACA [CACACA_site5026]”, the “gcPBM binding intensity (ln)” value came to 8.79 ± 0.56.

For “ATATTTTTTAGGGTCACACATACTTATTATATAAAT [CACACA_site4926]”, the “gcPBM binding intensity (ln)” value came out at 8.65 ± 0.37.

As for “AATATTTAACACCTTATACACACTTTCTTCCTTTTT [CACACA_site785]”, the “gcPBM binding intensity (ln)” value was determined as 8.82 ± 0.44.

Consider “TAAAAAATTATAAAATGTACATAAAAAAAAAAAAAA [XGTACX_site3376]”, for which the “gcPBM binding intensity (ln)” value turned out to be 8.38 ± 0.54.

For “ATCCCAGTAATATATAGTACATAACTATAAGAGAAT [XGTACX_site6909]”, the “gcPBM binding intensity (ln)” value is 8.72 ± 0.54.

For the sequence “AAAGCACGCAAGAATACACACAAATATTATAAAAAA [CACACA_site6206]”, the “gcPBM binding intensity (ln)” value was found to be 8.48 ± 0.52.

As to “CTGAAGAAACTACAACGTACAAAATATGTATATATT [XGTACX_site3779]”, the “gcPBM binding intensity (ln)” value came out at 8.55 ± 0.4.

For the sequence “AGGAAAACAAAAGATGCATGCTAATTTTCCTCGCGT [TGCATGCA_site627]”, the “gcPBM binding intensity (ln)” value amounted to 8.97 ± 0.56.

For the sequence “TTTATTAATTAAACCATACACACATAATTTTTTTAT [CACACA_site842]”, the “gcPBM binding intensity (ln)” value turned out to be 8.34 ± 0.47.

In the case of “AAACGTGCGTATATGTGTACGCATATATATATATAT [XGTACX_site5252]”, the “gcPBM binding intensity (ln)” value worked out at 10.2 ± 0.75.

As for “AAAATTAATAAATGAGAAAAAAGGATGAATAATGAG [CACACA_negctrl_site1614]”, the “gcPBM binding intensity (ln)” value amounted to 8.96 ± 0.34.

For “AGAAAAAAAATGTATACACACAAATATAAAGAAGGA [CACACA_site3806]”, the “gcPBM binding intensity (ln)” value is 8.99 ± 0.36.

Regarding “AAAACTATATTAATGTGTACACATCAAAATATTAAT [XGTACX_site6767]”, the “gcPBM binding intensity (ln)” value came to 8.65 ± 0.13.

Regarding “CAAAATTATCAGAATCGTACATTTTTAACATATAAT [XGTACX_site7909]”, the “gcPBM binding intensity (ln)” value stood at 8.22 ± 0.37.

As for “TTACAAAACACTTATACACACATATATATATATATA [CACACA_site2716]”, the “gcPBM binding intensity (ln)” value worked out at 10.1 ± 0.38.

For the sequence “TAATATATTAAAAATAGTACATAAGAAAAATAAGTA [XGTACX_site7957]”, the “gcPBM binding intensity (ln)” value turned out to be 8.88 ± 0.41.

For the sequence “TTTCTAAGAAAAAAAAAAAAAAAAAAAAAGATACAA [GTGCAC_negctrl_site525]”, the “gcPBM binding intensity (ln)” value was 8.18 ± 0.54.

In the case of “AGGAAGGAAATAAATCAACACACATATATTATATAT [CACACA_site8678]”, the “gcPBM binding intensity (ln)” value was 8.6 ± 0.54.

For the sequence “ATATTTATTTTAATTTTTCTATATAAACTATTATGA [CACACA_negctrl_site739]”, the “gcPBM binding intensity (ln)” value is 8.25 ± 0.28.

As for “TATATATATTATATATGTACATATTGTATATTTTTG [XGTACX_site4564]”, the “gcPBM binding intensity (ln)” value was 8.56 ± 0.099.

Turning to “TATGTAAAATGTGTTTGTACTTATTTATTATATAAA [XGTACX_site2816]”, the “gcPBM binding intensity (ln)” value was found to be 8.32 ± 0.19.

As for “ATTATAAATATCAGTGCACACATTTCTACGCAAAGT [CACACA_site4420]”, the “gcPBM binding intensity (ln)” value is 8.84 ± 0.042.

Consider “AAGGAGCCTATGAACACACACATGTACAGATATTAA [CACACA_site6107]”, for which the “gcPBM binding intensity (ln)” value is 8.62 ± 0.45.

“TGTATTTATAGACACACACACTTTCTTTTTTTAAGA [CACACA_site7010]”: the “gcPBM binding intensity (ln)” value stood at 8.51 ± 0.39.

As to “AACAATTAGAACTTTGCACACTTCTATATATTTTGT [CACACA_site674]”, the “gcPBM binding intensity (ln)” value was determined as 8.87 ± 0.33.

For the sequence “TGTATAATAAGGAAGAGTACAAGTAAATACACACAT [XGTACX_site2084]”, the “gcPBM binding intensity (ln)” value was determined as 9.14 ± 0.39.

Take “TACATATATAAAAAAACACACACATATATATATATA [CACACA_site8315]”: the “gcPBM binding intensity (ln)” value worked out at 10.1 ± 0.46.

On to “TTGTATTAATAATTTTTTATATTATAGTTTATAATA [GTGCAC_negctrl_site130]”, for which the “gcPBM binding intensity (ln)” value came out at 8.19 ± 0.3.

For the sequence “ATCGGTATATTATTACATGAATAAACTTACACACAC [TGCATGCA_negctrl_site21]”, the “gcPBM binding intensity (ln)” value came out at 9.03 ± 0.21.

On to “TATATATATAACATTGTACACACAAAGAAATAATAT [CACACA_site8998]”, for which the “gcPBM binding intensity (ln)” value came to 9.04 ± 0.11.

With “TATATATAAAATGTATGTACATATTTATTTATATAG [XGTACX_site657]”, the “gcPBM binding intensity (ln)” value turned out to be 8.22 ± 0.36.

In the case of “AAGTGAAATAAAATATGTACATATATGTATATATAA [XGTACX_site4473]”, the “gcPBM binding intensity (ln)” value is 8.67 ± 0.23.

Regarding “AAAAAAAAAGAATGTGAACACACACCGTGAATATAA [CACACA_site8342]”, the “gcPBM binding intensity (ln)” value amounted to 8.53 ± 0.59.

“TTTTTTCTTCGTGTATTAAGTCACAATAGGAAAAAA [GTGCAC_negctrl_site644]”: the “gcPBM binding intensity (ln)” value came to 8.48 ± 0.25.

Consider “TTTGCAACATATAAAAGTACAAATAATATATTTATT [XGTACX_site890]”, for which the “gcPBM binding intensity (ln)” value is 8.41 ± 0.43.

In the case of “TTTATTATATGCACACGTACATATAATATATATATA [XGTACX_site4108]”, the “gcPBM binding intensity (ln)” value worked out at 9.39 ± 0.042.

Regarding “AGCAGTTTTTTTTTTTTTTTTTTTTTTATTAAAAGC [XGTACX_negctrl_site392]”, the “gcPBM binding intensity (ln)” value amounted to 7.96 ± 0.34.

For the sequence “TACTTATTTTTATAGCATTTCACGGAGGTAGTAATA [CACACA_negctrl_site468]”, the “gcPBM binding intensity (ln)” value stood at 8.6 ± 0.47.

As for “ATAATAAATCATCATATTACATTTATCTTTGTTGGA [CACACA_negctrl_site849]”, the “gcPBM binding intensity (ln)” value stood at 8.46 ± 0.16.

Consider “AACTGTAATTTTATACGTACATAAATAATATTATAT [XGTACX_site4277]”, for which the “gcPBM binding intensity (ln)” value came to 8.55 ± 0.31.

As for “AAAAAAAAAGAAAAACGTACGTTTATTTAATATATA [XGTACX_site4018]”, the “gcPBM binding intensity (ln)” value worked out at 8.35 ± 0.49.

As for “TTATATAACTTTTCTAGTACTTGTATAAATTCCTAC [XGTACX_site3685]”, the “gcPBM binding intensity (ln)” value worked out at 8.67 ± 0.37.
